Measurements as given in paper PMC4336329 (PLoS ONE, 2015).
Out of some 310,000 compounds screened, about 14,000 (4.5%) showed an effect of 50% or more. The effect is printed as a negative number. Some of the results follow.

These molecules were tested against human ether-à-go-go-related gene (hERG) potassium channel (human, UniProt Q12809) (assay: primary screen, population patch clamp on CHO cells stably expressing hERG).
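Note: peak tail current of the secondary pulse compared with the same well before compound.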

Chain of human ether-à-go-go-related gene (hERG) potassium channel (Q12809 whole entry, looked up): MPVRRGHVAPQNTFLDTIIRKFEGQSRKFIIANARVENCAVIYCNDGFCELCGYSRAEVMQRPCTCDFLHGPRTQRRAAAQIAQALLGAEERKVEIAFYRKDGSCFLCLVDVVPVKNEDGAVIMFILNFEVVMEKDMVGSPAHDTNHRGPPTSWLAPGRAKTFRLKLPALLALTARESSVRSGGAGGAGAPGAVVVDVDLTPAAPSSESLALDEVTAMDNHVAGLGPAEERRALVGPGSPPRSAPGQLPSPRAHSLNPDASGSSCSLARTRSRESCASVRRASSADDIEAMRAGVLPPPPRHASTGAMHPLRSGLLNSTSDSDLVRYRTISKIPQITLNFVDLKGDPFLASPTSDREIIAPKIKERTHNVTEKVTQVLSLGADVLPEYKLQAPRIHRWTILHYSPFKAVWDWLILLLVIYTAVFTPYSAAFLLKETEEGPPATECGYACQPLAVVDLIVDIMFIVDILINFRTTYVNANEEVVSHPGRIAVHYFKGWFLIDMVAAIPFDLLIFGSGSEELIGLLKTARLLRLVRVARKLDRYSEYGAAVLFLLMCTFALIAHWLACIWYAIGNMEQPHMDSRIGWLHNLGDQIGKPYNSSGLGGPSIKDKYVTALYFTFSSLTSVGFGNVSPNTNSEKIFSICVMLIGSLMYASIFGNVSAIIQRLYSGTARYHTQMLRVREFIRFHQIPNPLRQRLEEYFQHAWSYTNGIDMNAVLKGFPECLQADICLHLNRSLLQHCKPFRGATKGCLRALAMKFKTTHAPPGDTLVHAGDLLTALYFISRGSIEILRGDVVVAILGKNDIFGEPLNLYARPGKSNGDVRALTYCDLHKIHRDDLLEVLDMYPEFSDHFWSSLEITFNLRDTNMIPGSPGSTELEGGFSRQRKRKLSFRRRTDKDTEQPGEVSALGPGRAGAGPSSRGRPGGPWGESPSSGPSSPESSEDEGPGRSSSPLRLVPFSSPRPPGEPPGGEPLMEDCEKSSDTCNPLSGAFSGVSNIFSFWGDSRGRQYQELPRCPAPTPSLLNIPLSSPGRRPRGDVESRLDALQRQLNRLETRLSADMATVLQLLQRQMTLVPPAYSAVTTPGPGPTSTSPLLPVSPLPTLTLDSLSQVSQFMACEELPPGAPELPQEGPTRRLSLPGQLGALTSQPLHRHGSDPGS

First: CCc1sc2nc(SCC(=O)Nc3cc(C)on3)n(-c3cccc(OC)c3)c(=O)c2c1C
Second: CCc1ccc2nc(NC(=O)c3cc(C)on3)sc2c1
The “hERG current change (%, negative = inhibition) at 10uM” value of the first is higher: 10.2% for the first, 0.243% for the second.

Compared with `CCOC(=O)C1CCCN(c2ncnc3c2cnn3-c2cccc(C)c2)C1` (centres unmarked), `C=CCNc1ncnc2c1cnn2-c1cccc(C)c1` is higher in “hERG current change (%, negative = inhibition) at 10uM” value: -33.1% for the first, -11.5% for the second.

Compared with `COCCCNc1nc(N)c([N+](=O)[O-])c(Nc2ccccc2OC)n1`, `COc1cc([N+](=O)[O-])ccc1NC(=O)CSc1nnc(C)c(C)n1` is lower in “hERG current change (%, negative = inhibition) at 10uM” value: 10.7% for the first, -25.2% for the second.

Compared with `O=C(CCc1ccc(O)c(O)c1)NNC(=S)NCCc1ccccc1`, `O=C(CCCCCn1nnc2ccccc2c1=O)N[C@H](C(=O)O)c1ccccc1` is lower in “hERG current change (%, negative = inhibition) at 10uM” value: 7.5% for the first, 6.15% for the second.

First: CC(=O)OC1(c2ccccc2)CCN(C)CC1(C)C.Cl (centres unmarked)
Second: CC1(N2CCOCC2)C(=O)c2ccccc2C1=O.Cl
The “hERG current change (%, negative = inhibition) at 10uM” value of the first is higher: 35.4% for the first, -8.16% for the second.

Going from `O=C(/C=C/c1ccco1)Nc1ccc2nn(-c3ccccc3)nc2c1` to `O=C(CSc1nnc(-c2ccco2)n1-c1ccccc1)NCc1ccco1`, the “hERG current change (%, negative = inhibition) at 10uM” value falls from 1.48% to -67.8%.

First: COc1cccc(NS(=O)(=O)c2ccc3[nH]cc(C(=O)N(C)Cc4ccco4)c(=O)c3c2)c1
Second: COc1ccc2[nH]c(=O)c(CN(Cc3cccs3)C(=S)Nc3ccccc3)cc2c1
The “hERG current change (%, negative = inhibition) at 10uM” value of the first is higher: 19.8% for the first, 16.7% for the second.

Compared with `CCS(=O)(=O)c1cc([N+](=O)[O-])c(Sc2ccccc2N)s1`, `Cc1cc(C(=O)Nc2cccc([N+](=O)[O-])c2)c(C)o1` is lower in “hERG current change (%, negative = inhibition) at 10uM” value: 4.05% for the first, -11.8% for the second.

Going from `C/C(=N\NC(=O)COc1ccc(C#N)cc1)c1ccccc1OC(F)F` to `O=C(NNC(=O)c1ccccc1OCc1ccc(F)cc1)c1ccncc1`, the “hERG current change (%, negative = inhibition) at 10uM” value falls from -12.9% to -24.8%.

First: COc1ccc(/C=N/NC(=O)c2ccncc2)c(C(=O)O)c1OC
Second: Cc1ccc(C(=O)Nc2ccc(C(=O)N/N=C/c3cccnc3)cc2)cc1
The “hERG current change (%, negative = inhibition) at 10uM” value of the first is lower: 4.99% for the first, 34.6% for the second.

Compared with `O=C(CNC(=O)c1ccccc1F)OCn1nnc2ccccc2c1=O`, `O=c1c2ccccc2nnn1COc1cccc2ccccc12` is higher in “hERG current change (%, negative = inhibition) at 10uM” value: -7.4% for the first, 14.6% for the second.

Compared with `Cc1ccc(S(=O)(=O)NCC(=O)OCC(=O)N2N=C(c3ccc(Cl)cc3)CC2c2ccco2)cc1C` (centres unmarked), `Cc1ccc(S(=O)(=O)N(C)c2ccc(OC(C)C(=O)N3CCCC3)cc2)cc1C` (centres unmarked) is lower in “hERG current change (%, negative = inhibition) at 10uM” value: 4.41% for the first, -37.6% for the second.

First: O=C(COC(=O)/C=C/c1cccc(C(F)(F)F)c1)NCc1ccc(F)cc1
Second: COc1ccc(CNC(=O)CS(=O)Cc2nc(-c3ccccc3C)oc2C)cc1 (centres unmarked)
The “hERG current change (%, negative = inhibition) at 10uM” value of the first is higher: 23.7% for the first, -31.7% for the second.

Going from `Cc1cccc(Nc2nnc(SCC(=O)c3ccc(Br)s3)s2)c1C` to `Cc1cccc(OCC(=O)Nc2cccc(-c3nnc(-c4ccccc4)o3)c2)c1C`, the “hERG current change (%, negative = inhibition) at 10uM” value falls from 21.9% to -4.37%.

Going from `CC(C)CN(CC(C)C)C(=O)c1cc2c(=O)n3ccccc3nc2s1` to `CC(C)C1(C)N=C(c2nc3ccccc3cc2C(=O)O)NC1=O` (centres unmarked), the “hERG current change (%, negative = inhibition) at 10uM” value falls from 7.12% to -6.81%.

Compared with `COc1cccc(-n2c(CN3CCN(C)CC3)nc3ccc([N+](=O)[O-])cc3c2=O)c1`, `Cc1ccc2c(c1)[nH]c1c(N3CCN(Cc4ccccc4)CC3)ncnc12` is higher in “hERG current change (%, negative = inhibition) at 10uM” value: -33.1% for the first, -24.5% for the second.

First: COc1ccc(-c2nnn(CC(=O)c3ccccc3)n2)cc1OC
Second: CCOC(=O)c1nn(-c2cccc(OC)c2)c(-c2ccccc2)c1C(=O)c1ccccc1
The “hERG current change (%, negative = inhibition) at 10uM” value of the first is lower: -8.29% for the first, -3.85% for the second.

Compared with `CCOc1ccccc1-n1c(O)c(C=NCCCn2ccnc2)c(=O)[nH]c1=O`, `CCOC(=O)c1ccc(NC(=O)CCn2nnc3ccccc32)cc1` is lower in “hERG current change (%, negative = inhibition) at 10uM” value: 13.2% for the first, -3.08% for the second.

Compared with `O=C(CSc1ccc2c(c1)OCCO2)N1CCN(c2ccccc2)CC1`, `COc1ccccc1CN(CC(=O)NCc1ccc2c(c1)OCO2)C(=O)c1ccc2c(c1)OCCO2` is lower in “hERG current change (%, negative = inhibition) at 10uM” value: -12.1% for the first, -28.4% for the second.

Compared with `COCCn1c(SCC(=O)Nc2ccccc2C(F)(F)F)nc2ccccc2c1=O`, `CCc1c(C)c(C#N)c2nc3ccccc3n2c1Nc1c(C)n(C)n(-c2ccccc2)c1=O` is lower in “hERG current change (%, negative = inhibition) at 10uM” value: 5.67% for the first, -5.49% for the second.

Going from `O=C(O)C(Oc1ccc2c(c1)oc(=O)c1ccccc12)c1ccccc1` (centres unmarked) to `Nc1ccccc1OCP(=O)(c1ccccc1)c1ccccc1`, the “hERG current change (%, negative = inhibition) at 10uM” value falls from 20.9% to 0.626%.

Going from `O=c1nc2n(c3ncccc13)CCCCC2` to `O=C(NCc1cccnc1)C(=O)NC1CCCCC1`, the “hERG current change (%, negative = inhibition) at 10uM” value falls from 12.6% to -9.15%.

Going from `Cc1[nH]c2ccccc2c1CCNC(=O)c1ccc2nccnc2c1` to `O=C(Nc1cccc(CCc2ccccn2)c1)c1cc(F)c(F)cc1Cl`, the “hERG current change (%, negative = inhibition) at 10uM” value falls from 13.2% to -23.9%.

First: Nc1ccc2nc(N3CCOCC3)sc2c1
Second: CSc1nc2ccc(NC(=O)C3CCCO3)cc2s1 (centres unmarked)
The “hERG current change (%, negative = inhibition) at 10uM” value of the first is higher: 23.5% for the first, -0.62% for the second.

First: CCOc1ccc(NC(=O)COC(=O)C23CC4CC(CC(C4)C2)C3)c([N+](=O)[O-])c1
Second: CC(=O)N1c2ccc(S(=O)(=O)NCCC(=O)NC3CCC(C)CC3)cc2CC1C (centres unmarked)
The “hERG current change (%, negative = inhibition) at 10uM” value of the first is lower: -2.63% for the first, 9.25% for the second.

First: O=[N+]([O-])c1ccc(-c2csc(Nc3ccccc3)[n+]2Cc2ccccc2)cc1.[Br-]
Second: Cc1ccc(C(=O)N/C(=C\c2cccc([N+](=O)[O-])c2)C(=O)NCc2ccncc2)cc1
The “hERG current change (%, negative = inhibition) at 10uM” value of the first is higher: 28.6% for the first, -73.3% for the second.

Going from `COc1cccc(NC(=O)CN2CCc3ccccc3C2)c1` to `COc1ccc(S(=O)(=O)N2CC(C(=O)O)Oc3ccccc32)cc1` (centres unmarked), the “hERG current change (%, negative = inhibition) at 10uM” value rises from 10.3% to 19.5%.

Compared with `Cc1nn(C)c(C(=O)NN)c1Cl`, `Cc1nn(C)c(C(=O)N/N=C/c2cccnc2)c1Br` is higher in “hERG current change (%, negative = inhibition) at 10uM” value: 4.55% for the first, 16.8% for the second.

Going from `Cc1nc(SCC(=O)NC2CCS(=O)(=O)C2)c(C#N)c(C)c1C` (centres unmarked) to `CC1(NC(=O)Cc2ccc(Cl)c(Cl)c2)CCS(=O)(=O)C1` (centres unmarked), the “hERG current change (%, negative = inhibition) at 10uM” value rises from -2.72% to 3.67%.

Going from `Cc1cccc(NC(=O)C2CCCN(S(=O)(=O)c3cccc4nonc34)C2)c1` (centres unmarked) to `O=C(Nc1cccc(F)c1)C1CCCN(S(=O)(=O)c2ccc(-n3cnnn3)cc2)C1` (centres unmarked), the “hERG current change (%, negative = inhibition) at 10uM” value falls from 25.7% to -20.2%.

Going from `O=[N+]([O-])c1cc(C(F)(F)F)cc([N+](=O)[O-])c1N1CCCNCC1` to `Cc1cccc(N2CCN(S(=O)(=O)c3ccc(S(=O)(=O)N4CCCC4)cc3)CC2)c1C`, the “hERG current change (%, negative = inhibition) at 10uM” value rises from -27% to 12.6%.

Going from `CCN(CC)c1ccc(-c2nc3cnccn3c2NC2CCCC2)cc1` to `Cc1cc(NC(=O)CCC(=O)N(c2cccnc2)C(C(=O)NC2CCCC2)c2ccccc2F)no1` (centres unmarked), the “hERG current change (%, negative = inhibition) at 10uM” value falls from 7.02% to 1.42%.

Compared with `Cc1c(O)ccc2cc(S(=O)(=O)c3ccccc3)c(=O)oc12`, `O=S(=O)(c1cccc2ccccc12)N1CCSC1` is lower in “hERG current change (%, negative = inhibition) at 10uM” value: 13.8% for the first, -11.9% for the second.

Compared with `COC(=O)NNC(=O)c1ccc(C)c(Br)c1`, `CCN(CC)C(=S)NC(=O)c1ccc(F)cc1` is higher in “hERG current change (%, negative = inhibition) at 10uM” value: 1.45% for the first, 23.3% for the second.

First: Brc1ccc(C2=Nc3ccccc3C(c3ccncc3)=NN2)cc1
Second: c1ccc(Cc2ccc(OCCn3cncn3)cc2)cc1
The “hERG current change (%, negative = inhibition) at 10uM” value of the first is higher: 42.5% for the first, -10.7% for the second.

Going from `CCOC(=O)c1nnn(-c2nonc2N)c1COc1c(C=O)cccc1OC` to `COC(=O)C1=C(c2ccc(F)cc2OCc2ccccc2)C[C@@H]2CC[C@H]1N2C(=O)NCc1ccco1`, the “hERG current change (%, negative = inhibition) at 10uM” value falls from -6.2% to -8.86%.

Compared with `CC(C)(C)OC(=O)CN1c2cccc3cccc(c23)S1(=O)=O`, `CC(C)(C)NC(=O)COC(=O)c1ccc2c(c1)C(=O)N(Cc1ccco1)C2=O` is higher in “hERG current change (%, negative = inhibition) at 10uM” value: 0.117% for the first, 13.5% for the second.

Compared with `CC(C)(C(=O)c1ccccc1)/[N+]([O-])=C/c1ccccc1F`, `CN1C[C@@H]2C(c3ccc(Cl)nc3)C3(c4ccccc4)CC2(C3)[C@H]1c1ccccc1` (some centres unmarked) is lower in “hERG current change (%, negative = inhibition) at 10uM” value: 15.4% for the first, -43.1% for the second.

First: CCCCN(C(=O)c1ccc(S(=O)(=O)N2CCCC2)cc1)C1CCS(=O)(=O)C1 (centres unmarked)
Second: O=C(NCc1cccc(Cl)c1)C1CCC(=O)N(CC2CCCCC2)C1 (centres unmarked)
The “hERG current change (%, negative = inhibition) at 10uM” value of the first is higher: -0.0452% for the first, -17.2% for the second.

First: CN1CCN(c2nc3c(c(=O)[nH]c(=O)n3C)n2CCCSc2ncccn2)CC1
Second: Cc1ccc2c(c1)C(=C(C#N)C#N)C(=O)N2CCN1CCOCC1
The “hERG current change (%, negative = inhibition) at 10uM” value of the first is higher: -18.7% for the first, -38.6% for the second.

Compared with `CCOC(=O)C1CCN(c2c(NCc3ccc(C(=O)Nc4ccc(C)cc4)cc3)c(=O)c2=O)CC1`, `Cc1cccc(CN2CCC(CNC(=O)Nc3ccc(F)c(Cl)c3)CC2)c1` is lower in “hERG current change (%, negative = inhibition) at 10uM” value: 1.42% for the first, -74.9% for the second.

Compared with `COCCNC(=O)C1CCC(CNS(=O)(=O)c2c(C)cc(C)cc2C)CC1` (centres unmarked), `O=C(NCc1ccco1)c1ccc(CS(=O)Cc2cccc(Cl)c2)o1` (centres unmarked) is lower in “hERG current change (%, negative = inhibition) at 10uM” value: 7.72% for the first, -6.01% for the second.

First: O=C1CCCC/C1=C\Nc1ccc(Cl)cn1
Second: Nc1nc2c(s1)C(=O)CCC2
The “hERG current change (%, negative = inhibition) at 10uM” value of the first is lower: -24.9% for the first, 11.5% for the second.
